Test results: the supplement of paper PMC12217912
Some of the results follow. Sequences were assembled here from the parent chain. Inactive controls read about 0.05.

B1: TEV protease; numbered along this chain (parent)
chain: MGESLFKGPRDYNPISSSICHLTNESDGHTTSLYGIGFGPFIITNKHLFRRNNGTLVVQSLHGVFKVKDTTTLQQHLVDGRDMIIIRMPKDFPPFPQKLKFREPQREERICLVTTNFQTKSMSSMVSDTSCTFPSGDGIFWKHWIQTKDGQCGSPLVSTRDGFIVGIHSASNFTNTNNYFTSVPKNFMELLTNQEAQQWVSGWRLNADSVLWGGHKVFMVKPEEPFQPVKEATQL

Variants of: B1
Assay: raw area under fraction-flipped curve 0-4 h after induction (AUC4h, not background-subtracted), DNA-recorder readout of cleavage of the substrate (dimensionless); higher = more cleavage of the substrate by the protease variant
Conditions: temperature: 34 °C; time window: 0-4 h after rhamnose induction
Method: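 In vivo DNA recorder in E. coli TOP10(DE3) ΔrhaA at 34 °C. Each TEVp single-site mutant (parent TEVp 0) is paired with a single-site variant of the 7-mer TEVs (canonical ENLYFQ|S). The substrate sits between flexible linkers in a Bxb1-sfGFP-TEVs-SsrA fusion, so cleavage stabilises Bxb1 and speeds flipping of a recombination array, read by NGS. The value is the raw area under the fraction-flipped curve over 0-4 h after rhamnose induction (AUC4h), with ≥20 reads per time point. It is not background-subtracted; inactive controls average about 0.047.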
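Further: Bxb1 expression induced with 0.2% (w/v) L-rhamnose at OD600 near 0.5, cultures sampled hourly, flipped fraction per protease–substrate barcode pair counted by paired-end Illumina sequencing.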

Variant | area with substrate ENLYAQS | area with substrate ENLYCQS | area with substrate ENLYEQS | area with substrate ENLYHQS | area with substrate ENLYIQS | area with substrate ENLYKQS | area with substrate ENLYLQS | area with substrate ENLYMQS | area with substrate ENLYNQS | area with substrate ENLYQQS | area with substrate ENLYSQS | area with substrate ENLYVQS | area with substrate ENLYWQS | area with substrate ENLYDQS | area with substrate ENLYGQS | area with substrate ENLYPQS | area with substrate ENLYRQS | area with substrate ENLYTQS | area with substrate ENLYYQS
T115H | 0.0893 | 0.0714 | 0.0665 | 0.0613 | 0.121 | 0.0623 | 0.0984 | 0.0711 | 0.0634 | 0.0673 | 0.0732 | 0.177 | 0.079 |  |  |  |  |  | 
R51D | 0.08 |  |  | 0.0706 | 0.122 |  |  |  | 0.0611 |  |  |  | 0.139 | 0.0591 | 0.0757 | 0.0795 | 0.0762 |  | 
D27F | 0.062 | 0.0805 | 0.0585 | 0.0794 | 0.0649 |  |  | 0.0975 | 0.0364 | 0.0754 | 0.0656 |  |  | 0.0725 | 0.0835 | 0.0759 | 0.0529 | 0.0958 | 
Q151V | 0.1 | 0.0766 | 0.0636 | 0.0917 |  | 0.0518 |  | 0.0766 | 0.0733 | 0.0651 |  | 0.0914 | 0.0754 |  | 0.0584 | 0.0479 |  | 0.0717 | 0.065
F65K | 0.0497 | 0.103 | 0.0622 | 0.0609 | 0.0821 | 0.0799 |  |  | 0.0767 | 0.0635 | 0.0681 | 0.0716 | 0.0721 | 0.0748 | 0.0532 | 0.0891 |  |  | 
I85N | 0.0307 |  | 0.0486 | 0.0493 |  |  | 0.0235 | 0.0453 |  |  | 0.0484 | 0.0401 | 0.0462 | 0.0524 | 0.0403 | 0.0558 | 0.0444 | 0.0485 | 
R81Q | 0.0612 | 0.0815 | 0.0684 | 0.0625 | 0.0952 | 0.0671 |  | 0.0612 |  |  |  | 0.0936 | 0.0454 |  |  |  |  |  | 0.0637
E108W | 0.0514 |  | 0.0493 | 0.05 | 0.0645 | 0.0549 |  | 0.0482 | 0.0614 | 0.0614 |  | 0.0635 | 0.0446 | 0.0574 | 0.0516 | 0.0612 | 0.0465 | 0.0511 | 0.063
S130T | 0.0738 |  | 0.0686 |  |  | 0.0404 |  |  |  | 0.0654 |  |  |  |  |  |  | 0.0653 |  | 
Q75Y | 0.0642 |  |  | 0.0599 | 0.0656 | 0.0666 | 0.0451 | 0.057 | 0.0629 | 0.0626 | 0.0575 | 0.0803 |  | 0.0617 | 0.0642 | 0.051 |  | 0.0638 | 0.0588
S127N | 0.0716 |  | 0.072 | 0.0651 |  | 0.0684 | 0.132 | 0.111 | 0.0878 |  | 0.0719 |  | 0.087 | 0.0731 |  | 0.0868 | 0.0606 |  | 0.0775
T30H | 0.0696 | 0.0739 | 0.0907 | 0.066 |  | 0.0398 | 0.0873 | 0.0759 | 0.0548 | 0.0645 |  | 0.115 | 0.0783 | 0.055 | 0.0621 | 0.0565 |  | 0.0808 | 
S209T | 0.0608 | 0.0649 | 0.0805 | 0.0652 | 0.0967 |  |  |  | 0.0819 |  |  |  |  |  |  | 0.0802 |  |  | 
H62T | 0.0747 | 0.102 | 0.0652 | 0.0643 | 0.108 | 0.0603 |  | 0.0774 | 0.0892 |  | 0.049 | 0.0972 | 0.0898 | 0.0581 |  |  | 0.0613 | 0.0754 | 
F92S | 0.0888 | 0.0711 | 0.0591 | 0.0454 | 0.114 | 0.0616 |  | 0.0554 | 0.0717 |  | 0.0627 |  | 0.0745 | 0.0668 | 0.0696 |  | 0.0731 |  | 0.0444
K221P | 0.115 | 0.0622 | 0.0486 | 0.0639 | 0.0823 | 0.0503 | 0.0645 | 0.0669 | 0.0597 | 0.0617 | 0.0727 | 0.11 | 0.0702 | 0.131 | 0.0768 | 0.0656 |  | 0.0714 | 
L5G |  | 0.0983 | 0.0704 | 0.108 |  | 0.0664 |  | 0.0753 | 0.0752 |  | 0.0759 | 0.121 | 0.0805 |  |  | 0.0485 | 0.0646 |  | 0.0759
F226L |  | 0.0825 | 0.0883 |  |  | 0.0466 | 0.111 | 0.105 | 0.0648 |  |  |  |  |  | 0.0455 | 0.0604 | 0.0518 |  | 0.0653
H215T |  | 0.0768 | 0.0517 | 0.0568 | 0.0559 |  |  |  |  | 0.0657 |  |  |  |  |  | 0.0672 |  |  | 
S169V |  | 0.0997 | 0.0591 | 0.0737 |  | 0.0709 |  |  | 0.0585 |  |  | 0.0637 |  |  |  | 0.0466 | 0.0492 |  | 
F49N |  | 0.0491 | 0.0532 | 0.0596 | 0.0553 | 0.0596 | 0.0697 | 0.0628 | 0.0552 | 0.0528 |  | 0.0536 | 0.0701 | 0.0487 |  | 0.0529 | 0.0443 | 0.0562 | 
V58Y |  | 0.0487 |  | 0.054 | 0.0817 |  |  | 0.0576 | 0.0448 | 0.0388 |  | 0.0672 |  | 0.0518 |  | 0.0554 |  |  | 
H143V |  | 0.0761 | 0.0634 | 0.0575 | 0.0913 | 0.0731 | 0.0705 |  | 0.0619 | 0.0623 | 0.065 | 0.0849 | 0.0511 | 0.0756 | 0.0587 |  | 0.056 | 0.0637 | 0.0674
T55W |  | 0.0934 | 0.0664 | 0.0703 | 0.12 | 0.0602 |  |  | 0.0709 |  | 0.054 | 0.133 | 0.074 | 0.0793 | 0.0658 | 0.0738 |  |  | 0.0686
F173P |  | 0.098 | 0.0525 |  |  | 0.0724 |  |  |  | 0.0355 | 0.0698 |  | 0.0653 | 0.0815 | 0.0709 |  | 0.0832 |  | 
N53P |  | 0.0659 | 0.0694 |  | 0.0901 |  | 0.0532 | 0.103 | 0.0609 |  | 0.0753 | 0.0858 | 0.0827 | 0.0516 | 0.0452 |  | 0.0486 |  | 0.0744
V57H |  | 0.0601 | 0.0659 | 0.0691 | 0.146 |  | 0.0861 | 0.0812 | 0.0544 | 0.0576 |  | 0.13 | 0.0599 |  |  | 0.0628 |  | 0.0653 | 
Q234E |  | 0.0649 | 0.074 | 0.0596 | 0.127 |  |  | 0.086 | 0.0618 | 0.0702 | 0.0722 |  | 0.0775 | 0.0537 | 0.0803 | 0.0628 | 0.073 |  | 
